Test results as given in patent US20230338478A1 (University of Pennsylvania, published 2023).
Where two headings read alike, the source gives them in different places.

How the values were obtained:
[1] = target: T1, SARS-CoV-2 spike, Wuhan (A.1), on pseudotyped lentivirus (SARS-CoV-2); experiment: cell-based or functional assay
[2] = target: T1, SARS-CoV-2 spike, Wuhan (A.1), on …; experiment: cell-based or functional assay; remark: listed apart in the source
[3] = target: SARS-CoV-2 spike delta on pseudotyped lentivirus (SARS-CoV-2); experiment: cell-based or functional assay
[4] = target: T2, CoV-2 Wuhan-Hu1 spike RBD (BLI analyte) (SARS-CoV-2); experiment: BLI, decoy immobilized as ligand, RBD as analyte
T2 construct: domain: RBD

[5] = target: T3, yeast-displayed SARS-CoV-2 (Wuhan-Hu-1) RBD (SARS-CoV-2); experiment: yeast-displayed RBD, decoy titration, flow cytometry
T3 construct: range […]

[6] = target: T4, yeast-displayed SARS-CoV-2 Delta RBD (SARS-CoV-2); experiment: as above
T4 construct: range […]

[7] = target: T5, yeast-displayed SARS-CoV-2 Delta + RBD (SARS-CoV-2); experiment: as above
T5 construct: range […]

[8] = target: T6, yeast-displayed SARS-CoV-2 Lambda RBD (SARS-CoV-2); experiment: as above
T6 construct: range […]

[9] = target: T7, yeast-displayed SARS-CoV-2 Mu RBD (SARS-CoV-2); experiment: as above
T7 construct: range […]

[10] = target: T8, yeast-displayed SARS-CoV-2 Omicron BA.1 RBD (SARS-CoV-2); experiment: as above
T8 construct: range […]

[11] = target: T9, yeast-displayed SARS-CoV-2 Omicron BA.2 RBD (SARS-CoV-2); experiment: as above
T9 construct: range […]

[12] = target: T3, yeast-displayed SARS-CoV-2 (Wuhan-Hu-1) …; experiment: as above; remark: listed apart in the source
yeast-displayed NL63 RBD = yeast-displayed NL63 RBD (human coronavirus NL63); experiment: as above
[13] = target: T3, yeast-displayed SARS-CoV-2 (Wuhan-Hu-1) …; experiment: yeast display flow cytometry, titration of decoy on RBD yeast

B1: hAce2-Variant1-IgG4 soluble decoy fusion protein (Fc fusion)
chain: QSTIEEQAKTFLDMFNHKAEDLFYQSSLAAWNYNTNITEENVQNMNNAGDKWSAFLKEQSTFAQMYPLQEIQNPTVKLQLQALQQNGSSVLSEDKSKRLNTILNTMSTIYSTGKVCNPDNPQECLLLEPGLNEIMANSLDYNERLWAWESWRSEVGKQLRPLYEEYVVLKNEMARANHYEDYGDYWRGDYEVNGVDGYDYSRGQLIEDVEHTFEEIKPLYEHLHAYVRAKLMNAYPSYISPIGCLPAHLLGDMWGRFWTNLYSLTVPFGQKPNIDVTDAMVDQAWDAQRIFKEAEKFFVSVGLPNMTQGFWEYSMLTDPGNVQKAVCHPTAWDLGKGDFRILMCTKVTMDDFLTAHHEMGHIQYDMAYAAQPFLLRNGANEGFHEAVGEIMSLSAATPKHLKSIGLLSPDFQEDNETEINFLLKQALTIVGTLPFTYMLEKWRWMVFKGEIPKDQWMKKWWEMKREIVGVVEPVPHDETYCDPASLFHVSNDYSFIRYYTRTLYQFQFQEALCQAAKHEGPLHKCDISNSTEAGQKLFNMLRLGKSEPWTLALENVVGAKNMNVRPLLNYFEPLFTWLKDQNKNSFVGWSTDWSPYAD[gap - human IgG4 Fc and a few adjoining residues]
IC50, neutralization assay [1]: 0.09 µg/mL

B2: hAce2-Variant2-IgG1 soluble decoy fusion protein (Fc fusion)
chain: QSTIEEQAKTFLDMFNHKAEDLFYQSSLAAWNYNTNITEENVQNMNNAGDKWSAFLKEQSTFAQMYPLQEIQNPTVKLQLQALQQNGSSVLSEDKSKRLNTILNTMSTIYSTGKVCNPDNPQECLLLEPGLNEIMANSLDYNERLWAWESWRSEVGKQLRPLYEEYVVLKNEMARANHYEDYGDYWRGDYEVNGVDGYDYSRGQLIEDVEHTFEEIKPLYEHLHAYVRAKLMNAYPSYISPIGCLPAHLLGDMWGRFWTNLYSLTVPFGQKPNIDVTDAMVDQAWDAQRIFKEAEKFFVSVGLPNMTQGFWEYSMLTDPGNVQKAVCLPTAWDLGKGDFRILMCTKVTMDDFLTAHHEMGHIQYDMAYAAQPFLLRNGANEGFHEAVGEIMSLSAATPKHLKSIGLLSPDFQEDNETEINFLLKQALTIVGTLPFTYMLEKWRWMVFKGEIPKDQWMKKWWEMKREIVGVVEPVPHDETYCDPASLFHVSNDYSFIRYYTRTLYQFQFQEALCQAAKHEGPLHKCDISNSTEAGQKLFNMLRLGKSEPWTLALENVVGAKNMNVRPLLNYFEPLFTWLKDQNKNSFVGWSTDWSPYAD[gap - human IgG1 Fc]
IC50, pseudotyped lentivirus neutralization [2]: 0.019 µg/mL | IC50, pseudotyped lentivirus neutralization [3]: 0.019 µg/mL | Kd [4]: 0.21 nM | Kd [5]: 0.16 nM | Kd [6]: 0.21 nM | Kd [7]: 0.21 nM | Kd [8]: 0.2 nM | Kd [9]: 0.1 nM | Kd [10]: 0.031 nM | Kd [11]: 0.024 nM | Kd [12]: 0.14 nM | Kd (yeast-displayed NL63 RBD): 0.22 nM | EC50 (read off the curve) [13]: ~0.1 nM
